# Experimental data taken from PubChem BioAssay AID651820 (National Center for Advancing Translational Sciences (NCATS), 2012).
# “And” between values parts separate entries of the source, which are not always exact repeats. Equal values may be shown once. About 12,000 (3.5%) of roughly 340,000 compounds were called active. Inconclusive means that the source gave no clear call. Such entries were picked first, then a sample of the others. Calls come from the whole dose curve; as a rule, active = well fitted inhibition curve with a large enough effect; inconclusive = small, poorly fitted or top-dose-only effect, or another doubt; inactive = no such curve, though single readings can be large or run the other way. A potency beside an inconclusive call is a rough fit, not a confirmed value.
# Assay: qHTS Assay for Inhibitors of Hepatitis C Virus (HCV)
# Details: Huh7.5.1 HCVcc-Cre (HCVcc is cell-culture hepatitis C virus) infection, luciferase reporter, 44 h; activity change, negative = inhibition: at 41.8 µM (top of the series)
# How it was run: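 A cell-based infection assay in which seeded cells (1,000 per well) receive test compound after 4 h, are inoculated with HCVcc-Cre at approximately 0.5 moi, and are incubated 44 h before luminescence detection.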
# % is set by controls: 0 for no effect and ±100 for the full control effect; potency is the fitted concentration of half-maximal effect; tags give direction and shape of the fitted curve.
Structure (SMILES),Potency,"activity change, negative = inhibition"
N#Cc1nc(COc2ccc(F)cc2)oc1N1CCN(Cc2ccccc2)CC1,"inconclusive: 31.6 µM [inhibitor, single point]",–
Cc1ccc(-c2ccc(=O)n(CC(=O)NCCC(C)C)n2)cc1,–,inactive: 1.32%
Cc1occc1-c1nnc(SCC(=O)N2CCCC(C)C2)o1 (stereo not drawn),–,inactive: 12.2%
COc1ccccc1/C=N/N(C(C)=O)c1nc(-c2ccc(F)cc2)cs1,"inconclusive: 10 µM [inhibitor, single point]",–
CCc1ccc([C@@H]2C[C@H]3CN(Cc4ccccc4OC)C(=O)[C@]34CCCN24)cc1,"inconclusive: 5.62 µM [inhibitor, full curve]",–
O=C(c1ccco1)N1CCN(S(=O)(=O)c2ccc3c(c2)CCN3C(=O)C2CCC2)CC1,"inactive and inconclusive: 11.2 µM [inhibitor, single point]",–
CC(=O)c1ccc(NC(=O)N2C3CCC2CC(O)(c2cccnc2)C3)cc1 (stereo not drawn),–,inactive: -1.86%
Cc1[nH]cnc1CSCc1ccc(F)cc1,–,inactive: -3.19%
CC(=O)Nc1nc(C)c(-c2csc(Nc3ccc(O)cc3)n2)s1,active: 10 µM,–
S=c1[nH]nc(-c2cc(-c3ccco3)[nH]n2)n1-c1ccccc1Cl,–,inactive: -13.6%
CCCCn1cnc2sc3c(c2c1=N)CCCC3,"inconclusive: 11.2 µM [inhibitor, partial curve, poor fit]",–
COC(=O)c1c(C)[nH]c(C(=O)OCC(=O)NC(C)(C)C)c1C,"inconclusive: 31.6 µM [inhibitor, single point]",–
Cc1ccc(Cn2nnc(C(=O)Nc3cccc(C)c3C)c2N)cc1,"inconclusive: 3.16 µM [inhibitor, full curve, poor fit]",–
CN(C)CCCNC(=O)C[C@H]1C[C@H](C(=O)N2CCOCC2)[C@@]2(CCC3CCCC3)c3[nH]c4cc(-c5ccco5)ccc4c3CCN2C1=O,active: 7.94 µM,–
O=C(COC(=O)CCN1C(=O)/C(=C\C=C\c2ccccc2)SC1=S)Nc1cc(F)ccc1F,–,inactive: 3.88%
COC(=O)C1=C(C)N(Cc2ccccc2)C(=NCCc2c[nH]c3ccccc23)N[C@H]1c1cccc(C(F)(F)F)c1,"inconclusive: 31.6 µM [inhibitor, single point]",–
COCC(C)N=C1NN=C(c2cc(C)n(Cc3ccccc3Cl)c2C)CS1 (stereo not drawn),"inconclusive: 14.1 µM [inhibitor, single point]",–
N#Cc1ccc(NC(=O)COC(=O)C2Cc3ccccc3CN2C(=O)c2ccccc2)cc1 (stereo not drawn),active: 10 µM,–
Cc1ccc(C(C)C)c(OCC(=O)NN=C2CCCCCCC2)c1,"inconclusive: 22.4 µM [inhibitor, single point]",–
COc1ccc(C2Nc3cc(OC)ccc3-n3cccc32)cc1 (stereo not drawn),"inconclusive: 31.6 µM [inhibitor, single point]",–
Cc1cc(NC(=O)/C=C/c2ccccc2)c(C(C)C)cc1O,"inconclusive: 15.8 µM [inhibitor, partial curve]",–
COc1ccc(NC(=O)c2cc(S(=O)(=O)N(Cc3ccccc3)c3ccccc3)ccc2Cl)cn1,"inconclusive: 10 µM [inhibitor, single point]",–
ON=C(CCc1ccccc1)CCc1ccccc1,–,inactive: 11.1%
CCOC(=O)C1=CN(Cc2cccc(F)c2)S(=O)(=O)NC1c1ccc(F)c(Cl)c1 (stereo not drawn),"inconclusive: 31.6 µM [inhibitor, single point]",–
Cc1c([N+](=O)[O-])cc(C(=O)Nc2ccc(Cc3ccncc3)cc2)cc1[N+](=O)[O-],"inconclusive: 5.62 µM [inhibitor, partial curve, poor fit]",–

Structure (SMILES),Potency,"activity change, negative = inhibition"
CNCCc1c(C)n[nH]c1C,–,inactive: 7.94%
CC12CN3CCN(CC(C3)C1O)C2 (stereo not drawn),–,inactive: 0.925%
Cn1nc(C(=O)NCc2ccc(F)cc2)cc1C(=O)NCc1ccc(F)cc1,–,inactive: -26.8%
Cc1nc2c3ccccc3nc(NNC(=O)CCC(=O)NC(C)C)n2n1,–,inactive: 24.8%
O=c1ccsn1Cc1ccccc1,"inconclusive: 5.62 µM [inhibitor, single point]",–
O=C(N[C@@H]1C/C=C\C[C@@H](CC(=O)N(CCO)Cc2ccccc2)C(=O)N[C@@H](c2ccccc2)COC1=O)OCC1c2ccccc2-c2ccccc21,"inconclusive: 8.91 µM [inhibitor, single point]",–
Cc1csc2ncnc(NC3CCN(Cc4ccccc4)CC3)c12,active: 1.78 µM,–
O=C1CCc2cc(S(=O)(=O)N3CCC(C(=O)NCCC4=CCCCC4)CC3)ccc2N1,–,inactive: -7.51%
O=C(CC1(O)C(=O)N(Cc2cccc3ccccc23)c2ccccc21)c1cccnc1 (stereo not drawn),"inconclusive: 10 µM [inhibitor, single point]",–
Cc1cc(OC(F)F)ccc1NC(=O)Nc1ccc([N+](=O)[O-])cc1,"inconclusive: 12.6 µM [inhibitor, partial curve]",–
O=C1OC(c2ccccc2)(c2ccc(O)cc2)c2ccccc21 (stereo not drawn),"inconclusive: 31.6 µM [inhibitor, single point]",–
COc1cccc(CC(=O)OCC(=O)NC(Cc2ccccc2)C(C)=O)c1 (stereo not drawn),–,inactive: 12.7%
OC(Cn1nnc2ccccc21)Cn1c(C(F)(F)F)nc2ccccc21 (stereo not drawn),–,inactive: 7.35%
O=C(Nc1ccccc1)c1ccc(S(=O)(=O)N2CCCCC2)cc1,"inconclusive: 11.2 µM [inhibitor, single point]",–
C=C1CC[C@@H]2[C@](C)(CO)[C@H](O)CC[C@@]2(C)[C@@H]1C/C=C1/C(=O)OCC1O (stereo partly drawn),–,inactive: 0.748%
O=C1c2oc3ccccc3c(=O)c2C(c2ccc(O)cc2)N1c1nccs1 (stereo not drawn),–,inactive: 8.77%
O=C(NCC1CCCO1)C(c1cccs1)N(Cc1cccs1)C(=O)Cn1nnc(-c2cccs2)n1 (stereo not drawn),–,inactive: -19.1%
CC(=O)N1CCN(c2ccc(S(=O)(=O)N3CCCCC3)cc2[N+](=O)[O-])CC1,–,inactive: -6.28%
CCOC(=O)c1c(C)n(C)c2cc(-c3ccc(F)cc3)c(O)cc12,–,inactive: -12.9%
CCCCn1cnc2c(SCc3ccc([N+](=O)[O-])cc3)nc(N)nc21,"inconclusive: 31.6 µM [inhibitor, single point]",–
CC(C)(C)C1CCc2c(sc(NC(=O)c3cccs3)c2C(=O)N2CCCCC2)C1 (stereo not drawn),"inconclusive: 8.91 µM [inhibitor, partial curve, poor fit]",–
Cc1cc(C)c2nc(N3CCC(C(=O)NCCCN4CCCCC4)CC3)sc2c1,"inconclusive: 6.31 µM [inhibitor, full curve]",–
Cc1cc(C)c2nc(SCC(=O)Nc3ccc(S(=O)(=O)N4CCCC4)cc3)c(C)cc2c1,"inconclusive: 3.55 µM [inhibitor, full curve]",–
CC(C)(C)[C@@H]1COC(=O)[C@H](Cc2ccc(F)cc2)CC/C=C\C[C@H](CC(=O)N(CCO)Cc2ccccc2)C(=O)N1,"inconclusive: 22.4 µM [inhibitor, single point]",–
Cc1cccc(-n2ncc3c(N4CCCC4)ncnc32)c1,"inconclusive: 2.24 µM [inhibitor, single point]",–

Structure (SMILES),Potency,"activity change, negative = inhibition"
Cc1ccc(C2CC(c3cccs3)=NN2C(=O)CCl)cc1 (stereo not drawn),active: 2.82 µM,–
CN(C)CCCC1(c2ccc(F)cc2)OCc2cc(C#N)ccc21 (stereo not drawn),"inconclusive: 22.4 µM [inhibitor, single point]",–
S=C(NCCc1ccncc1)Nc1ccccc1,–,inactive: -18.2%
O=C(Nc1nc2ccc(S(=O)(=O)N3CCOCC3)cc2s1)c1cccs1,–,inactive: 11.4%
O=C(/C=C/c1ccc(Cl)cc1)N1CCN(c2c(Cl)cccc2[N+](=O)[O-])CC1,"inconclusive: 31.6 µM [inhibitor, single point]",–
CC(=O)c1ccc(NC(=O)CSc2nc(Nc3ccccc3)nc(N3CCOCC3)n2)cc1,"inconclusive: 1.58 µM [inhibitor, full curve]",–
CC1=CC2=NC(=O)/C(=C\c3cccn3CCOc3ccc(C)c(C)c3)C(=N)N2O1,"inconclusive: 31.6 µM [inhibitor, single point]",–
CCOc1ccc(C(=O)NC(=S)Nc2ccc(N3CCCCC3)cc2)cc1[N+](=O)[O-],"inconclusive: 0.891 µM [inhibitor, full curve]",–
Fc1ccc(-n2nnnc2-c2cnc(-c3cccs3)nc2C(F)(F)F)cc1,active: 10 µM,–
COc1cc(NC(=O)c2cc3c(C)nc4ccccc4c3o2)cc(OC)c1OC,"inconclusive: 2 µM [inhibitor, partial curve]",–
CCCc1nc(SCC(=O)c2ccc(OC)cc2)c2c(=O)n(C)c(=O)n(C)c2n1,–,inactive: 13%
CC1C=Cc2ccccc2N1C(=O)c1ccccc1 (stereo not drawn),–,inactive: -20.4%
Cc1ccccc1/C=N/N=C1/NC(=O)CCS1,–,inactive: 1.73%
Nn1nnc2ccccc21,–,inactive: 25.9%
O=[N+]([O-])c1ccc2nc(-c3ccccc3)n(OCc3ccc(Cl)cc3)c2c1,"inconclusive: 31.6 µM [inhibitor, single point]",–
c1cnc2nc3c4ccccc4c4ccccc4c3nc2c1,active: 2.82 µM,–
CC(=O)c1c(C)[nH]c(C(=O)CSc2nnc(-c3ccc(Cl)cc3)n2CC2CCCO2)c1C (stereo not drawn),"inconclusive: 35.5 µM [inhibitor, single point]",–
CCOC(=O)C1CCN(Cc2ccc3ccccc3c2)CC1,–,inactive: -10.1%
CCn1ncc(Br)c1C(=O)Nc1ccc(Cl)cn1,–,inactive: 15.3%
Cc1oc(-c2ccc(Cl)cc2)nc1CN1CCCC(C(=O)NC2CC2)C1 (stereo not drawn),"inconclusive: 22.4 µM [inhibitor, single point]",–
CCCN1CCN(CCCNC(=O)c2cc3c(=O)n(C)c4ccccc4c3n2C)CC1,–,inactive: -18.7%
CC1CCCN(C(=O)c2cccc(S(=O)(=O)N3CCCc4ccccc43)c2)C1 (stereo not drawn),"inconclusive: 11.2 µM [inhibitor, partial curve, poor fit]",–
Nn1c(Cc2cccc3ccccc23)nnc1SCCOc1ccc(F)cc1,"inconclusive: 22.4 µM [inhibitor, single point]",–
